Source: PMC9911399, “Two distinct binding modes provide the RNA-binding protein RbFox with extraordinary sequence specificity”
Substitutions are numbered along the chain they refer to; changes in the protein carry UniProt numbers. This is one part of the list.

B1: AACCUUG (DNA:RNA)
RNA: GGGAGACCGGAAUUCAGAUUGUCCAACCUUGUUAAAUCCCGUCGUAGCCACCA
DNA 1: CAATCTGAATTCCGGTCTCCC
DNA 2: TGGTGGCTACGACGGGATT
B2: CAAAUUU (DNA:RNA)
RNA: B1 RNA with A25C, C27A, C28A, G31U
DNA 1: CAATCTGAATTCCGGTCTCCC
DNA 2: TGGTGGCTACGACGGGATT
B3: CGCUAUG (DNA:RNA)
RNA: B1 RNA with A25C, A26G, C28U, U29A
DNA 1: CAATCTGAATTCCGGTCTCCC
DNA 2: TGGTGGCTACGACGGGATT
B4: GCAUUUC (DNA:RNA)
RNA: B1 RNA with A25G, A26C, C27A, C28U, G31C
DNA 1: CAATCTGAATTCCGGTCTCCC
DNA 2: TGGTGGCTACGACGGGATT
B5: GGUACUU (DNA:RNA)
RNA: B1 RNA with A25G, A26G, C27U, C28A, U29C, G31U
DNA 1: CAATCTGAATTCCGGTCTCCC
DNA 2: TGGTGGCTACGACGGGATT
B6: GUCUAAC (DNA:RNA)
RNA: B1 RNA with A25G, A26U, C28U, U29A, U30A, G31C
DNA 1: CAATCTGAATTCCGGTCTCCC
DNA 2: TGGTGGCTACGACGGGATT
B7: GUACACA (DNA:RNA)
RNA: B1 RNA with A25G, A26U, C27A, U29A, U30C, G31A
DNA 1: CAATCTGAATTCCGGTCTCCC
DNA 2: TGGTGGCTACGACGGGATT
B8: UAUCUUA (DNA:RNA)
RNA: B1 RNA with A25U, C27U, G31A
DNA 1: CAATCTGAATTCCGGTCTCCC
DNA 2: TGGTGGCTACGACGGGATT
B9: UUGGUUA (DNA:RNA)
RNA: B1 RNA with A25U, A26U, C27G, C28G, G31A
DNA 1: CAATCTGAATTCCGGTCTCCC
DNA 2: TGGTGGCTACGACGGGATT

biological target: T1, RBFOX1 RRM RbFoxmut (Fox-RRM*) (Homo sapiens, UniProt Q9NWB1 109-208, R118D;E147R;N151S;E152T); experiment: EMSA; HiTS-Eq, 1 nM pool, 10 min; buffer printed only for the single-RNA assays: 10 mM Tris pH 7.5, 150 mM NaCl, 3.4 mM EDTA, 0.001% NP-40, 30 C; details: tags: His6 N-terminal (pET28a); label: 5' 32P
T1 sequence: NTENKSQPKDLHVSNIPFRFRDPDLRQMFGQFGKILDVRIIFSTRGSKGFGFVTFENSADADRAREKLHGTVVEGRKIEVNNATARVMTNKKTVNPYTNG
Outline: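 Purified RbFox RRM, wild type or mutant, was incubated for 10 min in 50 µL with 1 nM of a 5′-radiolabelled RNA pool carrying 7 randomized nucleotides, whose flanks were annealed to DNA oligonucleotides, over a series of increasing protein concentrations. Unbound RNA was resolved on 8% native PAGE, cut out, reverse-transcribed, barcoded by PCR and sequenced on an Illumina HiSeq 2500. Relative association constants were derived from changes in read counts for each RNA species versus the control reaction and normalised to the cognate motif.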

Binder	binding signal
B1	0.0938 KA relative to UGCAUGU
B2	0.0689 KA relative to UGCAUGU
B3	0.184 KA relative to UGCAUGU
B4	0.0777 KA relative to UGCAUGU
B5	0.0675 KA relative to UGCAUGU
B6	0.0773 KA relative to UGCAUGU
B7	0.0823 KA relative to UGCAUGU
B8	0.0802 KA relative to UGCAUGU
B9	0.155 KA relative to UGCAUGU
